Each structure is given as a SMILES string. Where a name gives a salt, the structure may show the parent alone. The campaign covered roughly 1,500 compounds. About 30 (2%) showed activity.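 The calls were made as follows: active = robust z-score below -2; a few such results were not called.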 This is one part of the list.

The test system of this assay is optoTopBP1 Flp-In 293 T-REx (HEK293) cells. Put plainly: light-induced TopBP1 condensate (nuclear foci) count, plate-normalised robust z-score vs non-control wells; higher = more TopBP1 condensates (negative = condensation inhibitor), active = hit call of the paper. Particulars: 10 µM; incubation time 2 h.
For the compound `Clc1ccc(C(OCCN2CCCCC2)c2ccccc2)cc1` (stereo not drawn) [Cloperastine hydrochloride], the “light-induced TopBP1 condensate (z-score)” value is inactive: -0.56.
For `CN1CCN(C(=O)OC2c3nccnc3C(=O)N2c2ccc(Cl)cn2)CC1` (stereo not drawn) [Zopiclone] the value was inactive: -0.995.
Consider `C[C@]12CC[C@H](O)C[C@H]1CC[C@@H]1[C@@H]2C[C@@H](O)[C@]2(C)[C@@H](C3=CC(=O)OC3)CC[C@]12O` [Digoxigenin], for which the “light-induced TopBP1 condensate (z-score)” value is active: -2.51.
For `CC(Cc1ccccc1)NCCC(c1ccccc1)c1ccccc1` (stereo not drawn) [Prenylamine lactate] the value was inactive: -0.953.
On to `CC(=O)NC1CCSC1=O` (racemic) [N-Acetyl-DL-homocysteine Thiolactone], for which the “light-induced TopBP1 condensate (z-score)” value was inactive: -0.247.
For `NC(=O)C[S+]([O-])C(c1ccccc1)c1ccccc1` (stereo not drawn) [Modafinil], the “light-induced TopBP1 condensate (z-score)” value is inactive: 1.31.
To `CN1C(=O)COc2c(C(=O)NC3CN4CCC3CC4)cc(Cl)cc21` (stereo not drawn) [Azasetron hydrochloride] belongs inactive: 0.519.
To `Cc1cccc(C)c1NC1=NCCCS1` [Xylazine] belongs inactive: -0.729; to `C=C(C)[C@@H]1[C@H]2OC(=O)[C@@H]1[C@]1(O)C[C@H]3O[C@]34C(=O)O[C@H]2[C@]14C` [Picrotoxinin], inactive: 2.68.
For `CC(C)c1c(CN(C)C(C)Cc2ccccc2)n(C)n(-c2ccccc2)c1=O` (stereo not drawn) [Famprofazone] the value was inactive: 0.549; for `NC(=O)CN1CCCC1=O` [Piracetam], inactive: -0.343.
For the compound `CC(=O)OCC(=O)[C@H]1CC[C@H]2[C@@H]3CC[C@H]4C[C@H](O)CC[C@]4(C)[C@H]3C(=O)C[C@]12C` [Alfadolone acetate], the “light-induced TopBP1 condensate (z-score)” value was inactive: 0.262.
To `CO[C@]12C[C@@H](COC(=O)c3cncc(Br)c3)CN(C)[C@@H]1Cc1cn(C)c3cccc2c13` [Nicergoline] belongs inactive: -0.703; to `CC(=O)OCC1=C(C(=O)O)N2C(=O)[C@@H](N)[C@H]2SC1` [Cephalosporanic acid, 7-amino], inactive: 0.816.
As for `C[N+]12CCC(CC1)C(OC(=O)C(O)(c1ccccc1)c1ccccc1)C2` (stereo not drawn) [Clidinium bromide], the “light-induced TopBP1 condensate (z-score)” value was inactive: 0.288.
`C#C[C@]1(O)C=C[C@H]2[C@@H]3CCC4=CC(=O)CC[C@@H]4[C@H]3CC[C@@]21CC` [Gestodene]: the “light-induced TopBP1 condensate (z-score)” value is inactive: -0.424.
To `C[C@]12Cc3c[nH]nc3C[C@@H]1CC[C@@H]1[C@@H]2CC[C@@]2(C)[C@H]1CC[C@]2(C)O` [Stanozolol] belongs inactive: 0.285; to `CC(C)C[C@H](CN)CC(=O)O` [Pregabalin], inactive: -0.842.
To `CC(C)(C)NCC(O)c1ccccc1Cl` (stereo not drawn) [Tulobuterol] belongs inactive: 0.0147.
For `CC(C)(C)NCC(O)c1ccccc1Cl` (stereo not drawn) [Tulobuterol Hydrochloride], the “light-induced TopBP1 condensate (z-score)” value was inactive: 0.914.
Regarding `COc1cc([C@@H]2c3cc4c(cc3[C@H](O)[C@H]3COC(=O)[C@H]23)OCO4)cc(OC)c1OC` [Podophyllotoxin], the “light-induced TopBP1 condensate (z-score)” value was active: -2.43.
For `CCNC1(c2cccs2)CCCCC1=O` (stereo not drawn) [Tiletamine hydrochloride] the value was inactive: 0.129.
Take `CCC1(c2cccc(O)c2)CCCCN(C)C1` (stereo not drawn) [Meptazinol hydrochloride]: the “light-induced TopBP1 condensate (z-score)” value is inactive: 1.42.
For `C[C@@H]1CC[C@H]2[C@@H](C)C(=O)O[C@@H]3O[C@@]4(C)CC[C@@H]1[C@]32OO4` [Artemisinin], the “light-induced TopBP1 condensate (z-score)” value was inactive: 0.357.
To `CCN(C(C)=O)c1cccc(-c2ccnc3c(C#N)cnn23)c1` [Zaleplon] belongs inactive: -0.711; to `NCCc1c[nH]c2ccc(O)cc12` [Serotonin hydrochloride], inactive: 0.329.
With `CCC(COC(=O)c1cc(OC)c(OC)c(OC)c1)(c1ccccc1)N(C)C` (stereo not drawn) [Trimebutine], the “light-induced TopBP1 condensate (z-score)” value is inactive: -0.833.
Take `COc1ccc(Cc2nccc3cc(OC)c(OC)cc23)cc1OC` [Papaverine hydrochloride]: the “light-induced TopBP1 condensate (z-score)” value was inactive: -0.0743.
To `CCC1(CC)C(=O)C=CNC1=O` [Pyrithyldione] belongs inactive: 0.505.
To `CC(C)(C)NCC(O)c1cc(Cl)c(N)c(Cl)c1` (stereo not drawn) [Clenbuterol hydrochloride] belongs inactive: 0.51.
For `Fc1ccc(C(OCCN2CCN(CCCc3ccccc3)CC2)c2ccc(F)cc2)cc1` the value was inactive: 0.413; for `CC(=O)O[C@H]1C[C@H](O[C@H]2[C@@H](O)C[C@H](O[C@H]3[C@@H](O)C[C@H](O[C@H]4CC[C@@]5(C)[C@H](CC[C@@H]6[C@@H]5C[C@@H](O)[C@]5(C)[C@@H](C7=CC(=O)OC7)CC[C@]65O)C4)O[C@@H]3C)O[C@@H]2C)O[C@H](C)[C@H]1O[C@@H]1O[C@H](CO)[C@@H](O)[C@H](O)[C@H]1O` [Lanatoside C], inactive: -1.56.
Turning to `COc1ccc(CCN2CCC(Nc3nc4ccccc4n3Cc3ccc(F)cc3)CC2)cc1` [Astemizole], the “light-induced TopBP1 condensate (z-score)” value is inactive: -0.731.
For `CC1(C)C(C=C(Cl)Cl)C1C(=O)OC(C#N)c1cccc(Oc2ccccc2)c1` (stereo not drawn) [Cypermethrin] the value was inactive: 1.09; for `Oc1cc(Cl)ccc1Oc1ccc(Cl)cc1Cl` [Triclosan], inactive: 0.585.
To `C[N+]1([O-])[C@@H]2C[C@@H](OC(=O)[C@H](CO)c3ccccc3)C[C@H]1[C@@H]1O[C@@H]12` (stereo partly drawn) [Scopolamin-N-oxide hydrobromide] belongs inactive: -0.439.
For `CCN(CC)C(C)C(=O)c1ccccc1` (stereo not drawn) [Amfepramone hydrochloride] the value was inactive: 0.658.
Regarding `C[C@]12CC[C@@H]3c4ccc(OC(=O)N(CCCl)CCCl)cc4CC[C@H]3[C@@H]1CC[C@@H]2O` [Estramustine], the “light-induced TopBP1 condensate (z-score)” value is inactive: -1.4.
To `CCC1(c2ccc(N)cc2)CCC(=O)NC1=O` (stereo not drawn) [Glutethimide, para-amino] belongs inactive: -0.727; to `CCN(C)C(=O)Oc1cccc([C@H](C)N(C)C)c1` [Rivastigmine], inactive: -0.679; to `CC[C@@]1([C@@H]2O[C@@H]([C@H]3O[C@@](O)(CO)[C@H](C)C[C@@H]3C)C[C@@H]2C)CC[C@H]([C@]2(C)CC[C@]3(C[C@H](O)[C@@H](C)[C@@H]([C@@H](C)[C@@H](OC)[C@H](C)C(=O)O)O3)O2)O1` [Monensin sodium salt], inactive: 0.406.
For `CN(C)C(=O)Oc1cc(OC(=O)N(C)C)cc(C(O)CNC(C)(C)C)c1` (stereo not drawn) [Bambuterol hydrochloride], the “light-induced TopBP1 condensate (z-score)” value is inactive: 0.59.
For `CCn1cc(C(=O)O)c(=O)c2cc3c(cc21)OCO3` [Oxolinic acid] the value was inactive: 0.396.
To `C[C@]12CC[C@H](O)C[C@@H]1CC[C@@H]1[C@@H]2CC[C@]2(C)C(=O)CC[C@@H]12` [Epiandrosterone] belongs inactive: -0.588; to `NCC(O)c1ccc(O)cc1` (racemic) [(+,-)-Octopamine hydrochloride], inactive: -1.15; to `CN1[C@@H]2CC[C@H]1C[C@@H](OC1c3ccccc3CCc3ccccc31)C2` [Deptropine citrate], inactive: -0.947.
In the case of `CCN[C@@H](C)Cc1cccc(C(F)(F)F)c1` [Dexfenfluramine hydrochloride], the “light-induced TopBP1 condensate (z-score)” value was inactive: -1.62.
To `CC(C)=CC1C(C(=O)OCc2cccc(Oc3ccccc3)c2)C1(C)C` (stereo not drawn) [Phenothrin] belongs inactive: -0.16; to `C[CH2][Hg][S]c1ccccc1C(=O)[O-].[Na+]` [Thimerosal], active: -8.21; to `NC(=O)CN1CC(O)CC1=O` (stereo not drawn) [Oxiracetam], inactive: -0.722.
Consider `CC[C@H](C)[C@H]1O[C@]2(C=C[C@@H]1C)C[C@@H]1C[C@@H](C/C=C(\C)[C@@H](O[C@H]3C[C@H](OC)[C@@H](O[C@H]4C[C@H](OC)[C@@H](O)[C@H](C)O4)[C@H](C)O3)[C@@H](C)/C=C/C=C3\CO[C@@H]4[C@H](O)C(C)=C[C@@H](C(=O)O1)[C@]34O)O2.CO[C@H]1C[C@H](O[C@H]2[C@H](C)O[C@@H](O[C@@H]3/C(C)=C/C[C@@H]4C[C@@H](C[C@]5(C=C[C@H](C)[C@@H](C(C)C)O5)O4)OC(=O)[C@@H]4C=C(C)[C@@H](O)[C@H]5OC/C(=C\C=C\[C@@H]3C)[C@]54O)C[C@@H]2OC)O[C@@H](C)[C@@H]1O` [Avermectin B1], for which the “light-induced TopBP1 condensate (z-score)” value is inactive: 2.02.
`C[C@]12CCC(=O)C=C1CC[C@@H]1[C@@H]2C(=O)C[C@]2(C)C(=O)CC[C@@H]12` [Adrenosterone]: the “light-induced TopBP1 condensate (z-score)” value was inactive: -0.361.
For `Nc1ccncc1` [Dalfampridine] the value was inactive: 0.554.
As to `C[N+]1(C)CCOC(O)(c2ccc(-c3ccc(C4(O)C[N+](C)(C)CCO4)cc3)cc2)C1` (stereo not drawn) [Hemicholinium bromide], the “light-induced TopBP1 condensate (z-score)” value is inactive: -0.655.
To `CC[C@@H](C(N)=O)N1CCCC1=O` [Levetiracetam] belongs inactive: -0.9; to `COc1ccc(C(=O)N2CCCC2=O)cc1` [Aniracetam], inactive: -1.43; to `CCCN1C[C@H](CSC)C[C@@H]2c3cccc4[nH]cc(c34)C[C@H]21` [Pergolide mesylate], inactive: -0.94.
For `COc1ccc(CCN)cc1OC` [Homoveratrylamine] the value was inactive: -1.31; for `CC[C@@]1(O)C(=O)OCc2c1cc1n(c2=O)Cc2cc3ccccc3nc2-1` [Camptothecine (S,+)], inactive: -1.28; for `N#Cc1nn(-c2c(Cl)cc(C(F)(F)F)cc2Cl)c(N)c1[S+]([O-])C(F)(F)F` (stereo not drawn) [Fipronil], inactive: -0.169.
For `CCC(=O)O[C@@](Cc1ccccc1)(c1ccccc1)[C@@H](C)CN(C)C` [Levopropoxyphene napsylate] the value was inactive: 0.58; for `C[N+](C)(C)CCCCCCCCCC[N+](C)(C)C` [Decamethonium bromide], inactive: 0.408.
For the compound `C[N+]1(C)[C@@H]2CC[C@H]1C[C@@H](OC(=O)C(CO)c1ccccc1)C2` (stereo partly drawn) [Methylatropine nitrate], the “light-induced TopBP1 condensate (z-score)” value was inactive: -0.568.
